Here are results for 57 compounds from PubChem BioAssay (NCI).

Molecules are shown by their SMILES. Several values for one entry are separate records, joined by “and”; a condition that tells them apart may be missing. Identical values can stand only once.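 Protocol summary: plate cells (96-well), add compound at 5 concentrations, incubate 48 h, interpolate endpoints linearly. GI50 is the concentration that inhibits growth by half. At the TGI there is no net growth.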 A value given as a limit tells only on which side of the number the result lay.

In this assay the test system is NCI-H322M lung. Briefly: inhibition of tumour cell growth, NCI panel, 48 h.
`COC[C@@H](N=CN1CCc2cc(OC)c(OC)cc2[C@@H]1C)C(C)(C)C` gave a TGI above 100 µM.
The compound `CCOC(=O)C1=C(c2ccccc2)N(C)c2ccccc2S1` registered a TGI above 100 µM.
With `CC1CCP(=O)(c2ccccc2)c2ccccc21` (centres undefined), the TGI was above 100 µM.
Consider `CCO/C=C/C(C)C1(C(=O)OCC)CCCCC1=O` (centres undefined), for which the TGI was above 100 µM.
In the case of `COc1ccc2c(c1)/C(=C\c1cccnc1)C(=O)N2`, the GI50 was 21.9 µM and the TGI turned out to be 45.4 µM.
`CCn1c(C(=O)N(C2CC2)C2CC2)cc2c3c(ncn3C)c(Nc3cc(C)n(C)n3)nc21`: the GI50 was above 52 µM and the TGI is above 100 µM.
The compound `O=C(O)[C@@H]1[C@H](C(=O)O)[C@H](C(=O)O)C[C@@H]1C(=O)O` gave a TGI above 100 µM.
For `CCN(CC)CCNc1ccc([N+](=O)[O-])c2sc3ccccc3c(=O)c12`, the GI50 was 0.409 µM and the TGI was determined as 2 µM.
For `O=C([CH-]C(=O)c1ccccc1)c1ccccc1.O=C([CH-]C(=O)c1ccccc1)c1ccccc1.O=C([CH-]C(=O)c1ccccc1)c1ccccc1.[Nd+3].[OH3+]`, in that order: 4.99 µM and 33.2 µM.
For `O=[N+]([O-])c1ccc(S[C@@H]2[C@H]3c4c(-c5ccccc5)[nH]c(-c5ccccc5)c4[C@@H]2C[C@H]3Cl)cc1`, the TGI was above 100 µM.
`Nc1nc(-c2ccccc2N=NN2CCCC2)nc2ccccc12` gave a TGI of 6.09 µM.
The compound `O=C1NC(=O)/C(=C/c2ccc(S(=O)(=O)N/N=C/c3ccc(Cl)cc3)cc2)N1` yielded a TGI above 100 µM.
For the compound `CCCCC1CC(c2cccc([N+](=O)[O-])c2)=NO1` (centres undefined), the TGI is above 100 µM.
As for `O=C(O)COc1ccc(O)c2c1C(=O)CCCC2=O`, the TGI is above 100 µM.
For the compound `COc1ccc(-c2cc(=O)c3c(C)cc(C)nc3[nH]2)cc1`, the TGI is above 100 µM.
Still for that read-out and setting: as for `O=C(CCN1CCCC1)Nc1ccc2sc3ccccc3c(=O)c2n1`, the figure is above 31.6 µM; as for `O=C(NCc1cccc(C(F)(F)F)c1)c1cc2sccc2nc1C(F)(F)F`, above 100 µM; as for `Cc1cc(=O)n2nc(SCc3ccccc3)sc2n1`, above 100 µM.
The compound `CC1OC(OCC2OC(Oc3c(-c4ccc(O)cc4)oc4cc(O)cc(O)c4c3=O)C(OC3OC(C)C(O)C(O)C3O)C(O)C2O)C(O)C(O)C1O` (centres undefined) returned a TGI above 100 µM.
`NC1CCCCC1.[O]=[Ge].[O]=[Ge].[O]=[Ge][OH].[O]=[Ge][OH]`: the TGI was above 100 µM.
Same read-out and setting: as for `COC(=O)[C@H]1[C@@H](C(C)C)O[C@@H](C(C)C)O[C@H]1C(F)(F)F`, the figure is above 100 µM; as for `COc1cc(/C=C\c2ccc(C)cc2)cc(OC)c1OC`, above 100 µM.
With `O=C(c1ccc2ccccc2c1)c1c(C(F)(F)F)n([O-])c2cc(F)c(F)cc2[n+]1=O`, the GI50 is 4.45 µM and the TGI is 14.6 µM.
For `O=C1c2ccc([N+](=O)[O-])cc2-c2c1c1ccccc1c(=O)n2CCCNCCCNCCCn1c2c(c3ccc([N+](=O)[O-])cc3c1=O)C(=O)c1ccccc1-2`, the GI50 is 6.04 µM and the TGI was 23 µM.
On to `CN1CCN(c2c(Cl)cc(Cl)c3[nH]c4ccccc4c(=O)c23)CC1`, for which the TGI came out at 38.5 µM.
As to `Cc1ccc(C2=NOC(=O)[C@@H]3CCCC[C@@H]23)cc1`, the TGI is above 100 µM.
Still for that read-out and setting: then `CC1(C)C(=O)C(C)(C)C1=NN`, with above 100 µM; and `COc1ccc2c(c1)C(N)=C(c1ccccc1)C2=O`, with above 100 µM.
As to `COc1cc2nc(-c3ccc4ccccc4c3)[nH]c(=O)c2cc1OC`, the TGI is above 100 µM.
Still for that read-out and setting: then `CN(C)CCNC(=O)c1ccc(NCCCN(C)CCCNc2ccc3c(=O)n(CCN(C)C)c(=O)n4c5ccccc5c(=O)c2c34)c2c(=O)c3ccccc3[nH]c12`, with 0.377 µM; and `CN(C)c1nc(N(C)C)nc(N(C)C23CC4CC(CC(C4)C2)C3)n1`, with above 100 µM.
Compound `CCOC(=O)C1(C(=O)OCC)[C@H](c2ccccc2)C2=NO[C@@H]3CCC[C@H]1[C@H]23` returned a TGI above 100 µM.
The same measure, in the same setting: then `COc1cc(/C=C\c2ccccc2)cc(OC)c1OC`, with above 100 µM; and `CC(=O)N[C@@H]1C(O)CN2C(=O)C(=O)O[C@H](C(O)CO)[C@@H]12` (some centres undefined), with above 100 µM.
For the compound `COC1=CC(=O)C2C(C1=O)[C@@H]1c3ccccc3C[C@H]21` (some centres undefined), the TGI was above 100 µM.
Turning to `CCc1n(Cc2ccc3ccccc3n2)cc[n+]1Cc1ccc2ccccc2n1`, the GI50 is 6.33 µM and the TGI was 41.9 µM.
As to `CC12N=NN(c3ccc([N+](=O)[O-])cc3)C1(O)c1ccccc1C2=O` (centres undefined), the TGI is above 100 µM.
As to `CC1(C)CC[C@H](Nc2ncc(C(F)(F)F)c(-c3c[nH]c4c(P(C)(C)=O)c(C#N)ccc34)n2)CN1`, the GI50 was 0.274 µM and the TGI is 16.1 µM.
Turning to `[Cl][Pt+2][Cl].[NH-]C1CCCCC1[NH-]` (centres undefined), the GI50 is 15.7 µM and 36.2 µM and 10.8 µM; the TGI is above 100 µM.
For the compound `Cc1cc(/C=C\c2ccc3ccccc3[n+]2C)c(O)c2ncccc12`, the GI50 is 0.382 µM and the TGI was determined as 3.04 µM.
Compound `CCOC(=O)C1=C(C(=O)c2ccc(C)cc2)C(c2cccc([N+](=O)[O-])c2)C(C(=O)c2ccc(C)cc2)=C(C(=O)OCC)N1` returned a TGI of 47.2 µM.
Turning to `COc1cc2c(c(OC)c1OC)-c1ccc(N)c(=O)cc1[C@@H](NC(C)=O)CC2`, the GI50 was 0.053 µM and the TGI was above 100 µM.
The like results for `Oc1ccc(C(c2ccc(O)cc2)c2ccc(Cl)cn2)cc1` were, in that order, 0.0964 µM and 0.456 µM.
In the case of `CC1OC2=N[C@@H]1C(=O)N[C@@H](C(C)C)C1=N[C@H](C(=O)N[C@@H](C(C)C)C3=N[C@H](C(=O)N[C@@H](C(C)C)C4=N[C@H](C(=O)N[C@H]2C(C)C)C(C)O4)C(C)O3)C(C)O1` (some centres undefined), the TGI was above 10 µM.
Still for that read-out and setting: then `COc1cc(/C=C/C(=O)c2c(=O)o[nH][n+]2-c2ccccc2)ccc1[O-]`, with 16.3 µM.
`CC(=O)OCC1OC(n2c3c(c(-c4cccc5ccccc45)c(C#N)c2=S)CCCC3)C(OC(C)=O)C(OC(C)=O)C1OC(C)=O` (centres undefined) returned a TGI above 100 µM.
With `Clc1ccc(N2N=C(c3cccc(Nc4ccncc4)c3)CC2c2ccc3c(c2)OCO3)cc1` (centres undefined), the GI50 was 2.13 µM and the TGI turned out to be 6.06 µM.
`C=C(CCCCCCCCC)CC(=O)SCCNC(=O)CCNC(=O)C(O)C(C)(C)COP(=O)(O)OP(=O)(O)OCC1OC(n2cnc3c(N)ncnc32)C(O)C1OP(=O)(O)O` (centres undefined): the TGI is above 100 µM.
`C=CCN(/C=C1/C(=O)O[C@H](COC)[C@@]2(C)C1=C(O)C(=O)C1=C2[C@H](OC(C)=O)C[C@]2(C)C(=O)CC[C@@H]12)CC=C`: the GI50 was 0.389 µM and the TGI was above 10 µM.
Take `O=C1C=CC=CC2CC=C[C@@H](O)C12` (some centres undefined): the TGI came out at 74.1 µM.
As for `COc1cc(/C=C2\CCC/C(=C\c3cc(OC)c(O)c(OC)c3)C2=O)cc(OC)c1O`, the GI50 is 6.37 µM; the TGI is 75 µM and > 100 µM.
In turn, `OCCCOC(c1ccccc1)(c1ccccc1)c1ccccc1` gave a TGI above 100 µM.
In the case of `COc1ccc(-c2nc3sc(-c4ccc(Cl)cc4)cn3n2)cc1`, the GI50 is 1.76 µM and the TGI is above 50 µM.
`O=C1C=CC(=O)C(CNc2ccc(C(=O)OC34CC5CC(CC(C5)C3)C4)cc2)=C1` yielded a TGI of 40.9 µM.
In the case of `CCCCCCCNc1nc(C(=O)OCC)ncc1-c1ccc(C(F)(F)F)cc1`, the GI50 was 24.7 µM and the TGI is above 100 µM.
`O=[N+]([O-])c1c(Br)cc(Br)c2c1Nc1c(ccc(Cl)c1Cl)S2` gave a TGI of 26 µM.
As to `CCOC(=O)c1c(CN2CCNCC2)nc2ccccc2c1-c1ccccc1`, the TGI came out at 28.4 µM.
